# In all, about 2,900 compounds were measured (“NF-kB SEAP reporter activity, fold change vs agonist alone”: median about 0.99, highest 2% from about 2.6 on). The list shows a part of the results.
# Assays:
# RAW-Dual [1] = assay: NF-kB SEAP reporter activity, fold change vs agonist alone; cytotoxicity flag (confluency mask): not cytotoxic; higher = enhanced NF-kB activity
# Procedure, shortened: (§1)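 Supernatant from RAW-Dual macrophages was read after 20 hours for IRF by QuantiLuc luminescence and for NF-κB by QuantiBlue absorbance at 620 nm. The cells (50,000 cells/well in DMEM, 384-well plates, 37 °C, 5% CO2) had received 50 nL of library stock by pin tool and, 1 h later, a PRR agonist. Reporter activity is expressed relative to agonist-alone wells as fold change, and wells were flagged cytotoxic if IncuCyte confluency was under 70% of agonist controls in both mask sets.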
# RAW-Dual [2] = assay: NF-kB SEAP reporter activity, fold change vs agonist alone; higher = enhanced NF-kB activity
# Procedure, shortened: as §1
# RAW-Dual [3] = assay: NF-kB SEAP reporter activity, fold change vs agonist alone; cytotoxicity flag (confluency mask): cytotoxic (confluency <70% of control); higher = enhanced NF-kB activity
# Procedure, shortened: as §1
# [4] = agonist: ODN 1826 (TLR9) 0.5 ug/mL
# [5] = agonist: Pam2CSK4 (TLR2/6) 0.1 ug/mL
# [6] = agonist: Pam3CSK4 (TLR2/1) 0.1 ug/mL
# [7] = library stock concentration (final ~1000-fold dilution): 10 mM, cytotoxicity flag (confluency mask): not cytotoxic, agonist: Imiquimod (TLR7) […]
# [8] = library stock concentration (final ~1000-fold dilution): 10 mM, cytotoxicity flag (confluency mask): not cytotoxic, agonist: MPLA (TLR4) […]
smiles,measurement,setting,value
O=[N+]([O-])c1cnc(Sc2nnc(O)n2-c2ccc3c(c2)OCCO3)s1 (library stock concentration (final ~1000-fold dilution): 10 mM),NF-kB SEAP reporter activity,RAW-Dual [1]; agonist: LPS (TLR4) 0.1 ug/mL,0.4
same,NF-kB SEAP reporter activity,RAW-Dual [1]; [4],0.202
same,NF-kB SEAP reporter activity,RAW-Dual [1]; [5],0.0784
same,NF-kB SEAP reporter activity,RAW-Dual [1]; [6],0.225
O=[N+]([O-])c1cnc(Sc2nnc(O)n2-c2ccc3c(c2)OCCO3)s1,NF-kB SEAP reporter activity,RAW-Dual [2]; [7],0.155
same,NF-kB SEAP reporter activity,RAW-Dual [2]; [8],0.276
N#CC1CCCN1C(=O)CNC12CC3CC(CC(O)(C3)C1)C2 (centres undefined),NF-kB SEAP reporter activity,RAW-Dual [2]; [7],0.891
same,NF-kB SEAP reporter activity,RAW-Dual [2]; [8],1.02
N#CC1CCCN1C(=O)CNC12CC3CC(CC(O)(C3)C1)C2 (centres undefined) (library stock concentration (final ~1000-fold dilution): 10 mM),NF-kB SEAP reporter activity,RAW-Dual [1]; agonist: LPS (TLR4) 0.1 ug/mL,1.32
same,NF-kB SEAP reporter activity,RAW-Dual [1]; [4],0.993
same,NF-kB SEAP reporter activity,RAW-Dual [1]; [5],1.21
same,NF-kB SEAP reporter activity,RAW-Dual [1]; [6],0.994
C/C(=N\NC(=O)c1cccc(S(=O)(=O)N2CCOCC2)c1)c1cc(Cl)ccc1O (library stock concentration (final ~1000-fold dilution): 10 mM),NF-kB SEAP reporter activity,RAW-Dual [1]; agonist: LPS (TLR4) 0.1 ug/mL,2.6
same,NF-kB SEAP reporter activity,RAW-Dual [1]; [4],1.9
same,NF-kB SEAP reporter activity,RAW-Dual [1]; [5],1.52
same,NF-kB SEAP reporter activity,RAW-Dual [1]; [6],2.48
C/C(=N\NC(=O)c1cccc(S(=O)(=O)N2CCOCC2)c1)c1cc(Cl)ccc1O,NF-kB SEAP reporter activity,RAW-Dual [2]; [7],1.53
same,NF-kB SEAP reporter activity,RAW-Dual [2]; [8],1.65
CC(Nc1nc(N2CCCC2)nc2ccccc12)c1ccccc1 (centres undefined),NF-kB SEAP reporter activity,RAW-Dual [2]; [7],0.421
same,NF-kB SEAP reporter activity,RAW-Dual [2]; [8],1.17
CC(Nc1nc(N2CCCC2)nc2ccccc12)c1ccccc1 (centres undefined) (library stock concentration (final ~1000-fold dilution): 10 mM),NF-kB SEAP reporter activity,RAW-Dual [1]; agonist: LPS (TLR4) 0.1 ug/mL,0.851
same,NF-kB SEAP reporter activity,RAW-Dual [1]; [4],0.214
same,NF-kB SEAP reporter activity,RAW-Dual [1]; [5],0.655
same,NF-kB SEAP reporter activity,RAW-Dual [1]; [6],0.588
O=S(=O)(O)CCCS(=O)(=O)O (library stock concentration (final ~1000-fold dilution): 10 mM water),NF-kB SEAP reporter activity,RAW-Dual [1]; agonist: LPS (TLR4) 0.1 ug/mL,1.04
same,NF-kB SEAP reporter activity,RAW-Dual [1]; [4],1.14
same,NF-kB SEAP reporter activity,RAW-Dual [1]; [5],1.14
same,NF-kB SEAP reporter activity,RAW-Dual [1]; [6],0.974
O=S(=O)(O)CCCS(=O)(=O)O,NF-kB SEAP reporter activity,"RAW-Dual [2]; library stock concentration (final ~1000-fold dilution): 10 mM water, cytotoxicity flag (confluency mask): not cytotoxic, agonist: Imiquimod (TLR7) […]",0.974
same,NF-kB SEAP reporter activity,"RAW-Dual [2]; library stock concentration (final ~1000-fold dilution): 10 mM water, cytotoxicity flag (confluency mask): not cytotoxic, agonist: MPLA (TLR4) […]",1.05
Nc1cccc2c1CN(C1CCC(=O)NC1=O)C2=O (centres undefined),NF-kB SEAP reporter activity,RAW-Dual [2]; [7],0.919
same,NF-kB SEAP reporter activity,RAW-Dual [2]; [8],1.01
Nc1cccc2c1CN(C1CCC(=O)NC1=O)C2=O (centres undefined) (library stock concentration (final ~1000-fold dilution): 10 mM),NF-kB SEAP reporter activity,RAW-Dual [1]; agonist: LPS (TLR4) 0.1 ug/mL,1.14
same,NF-kB SEAP reporter activity,RAW-Dual [1]; [4],0.998
same,NF-kB SEAP reporter activity,RAW-Dual [1]; [5],0.963
same,NF-kB SEAP reporter activity,RAW-Dual [1]; [6],1.1
Cc1cccc2c3c(ccc12)C1=C(C(=O)C3=O)C(C)CO1 (centres undefined) (library stock concentration (final ~1000-fold dilution): 10 mM),NF-kB SEAP reporter activity,RAW-Dual [1]; agonist: LPS (TLR4) 0.1 ug/mL,0.465
same,NF-kB SEAP reporter activity,RAW-Dual [1]; [4],1.12
same,NF-kB SEAP reporter activity,RAW-Dual [1]; [5],0.72
same,NF-kB SEAP reporter activity,RAW-Dual [1]; [6],0.641
Cc1cccc2c3c(ccc12)C1=C(C(=O)C3=O)C(C)CO1 (centres undefined),NF-kB SEAP reporter activity,RAW-Dual [2]; [7],1.31
same,NF-kB SEAP reporter activity,RAW-Dual [2]; [8],2.12
NC(=S)N/N=C/c1ncccc1N,NF-kB SEAP reporter activity,RAW-Dual [2]; [7],1.55
same,NF-kB SEAP reporter activity,RAW-Dual [2]; [8],1.56
NC(=S)N/N=C/c1ncccc1N (library stock concentration (final ~1000-fold dilution): 10 mM),NF-kB SEAP reporter activity,RAW-Dual [1]; agonist: LPS (TLR4) 0.1 ug/mL,2.34
same,NF-kB SEAP reporter activity,RAW-Dual [1]; [4],1.65
same,NF-kB SEAP reporter activity,RAW-Dual [1]; [5],1.07
same,NF-kB SEAP reporter activity,RAW-Dual [1]; [6],1.81
CCCCCCCCOC(=O)c1cc(O)c(O)c(O)c1,NF-kB SEAP reporter activity,"RAW-Dual [2]; library stock concentration (final ~1000-fold dilution): 10 mM, cytotoxicity flag (confluency mask): cytotoxic (confluency <70% of control), agonist: Imiquimod (TLR7) […]",0.278
same,NF-kB SEAP reporter activity,"RAW-Dual [2]; library stock concentration (final ~1000-fold dilution): 10 mM, cytotoxicity flag (confluency mask): cytotoxic (confluency <70% of control), agonist: MPLA (TLR4) […]",0.383
CCCCCCCCOC(=O)c1cc(O)c(O)c(O)c1 (library stock concentration (final ~1000-fold dilution): 10 mM),NF-kB SEAP reporter activity,RAW-Dual [3]; agonist: LPS (TLR4) 0.1 ug/mL,0.521
same,NF-kB SEAP reporter activity,RAW-Dual [3]; [4],0.179
same,NF-kB SEAP reporter activity,RAW-Dual [3]; [5],0.102
same,NF-kB SEAP reporter activity,RAW-Dual [3]; [6],0.171

# — the supplement of paper PMC10037445
